The other results are listed elsewhere or left out. Many values rest on one well or one pass, so single values are uncertain.

Test systems include WM115; WM1716; WM1745; WM3526; WM3619; WM451Lu.
Test in all cases: cell count relative to DMSO control; melanoma cells; higher = more viable cells
What all share (conditions): library dose: low library concentration; 72 h
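Further: cell number obtained by counting DAPI-stained nuclei in high-throughput microscope images with image analysis software, screen run in 1,536-well plates.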

Take `CN(C)S(=O)(=O)c1ccc2c(c1)/C(=C/c1cc3c([nH]1)CCCC3)C(=O)N2` + COC(=O)c1sccc1S(=O)(=O)Nc1ccc(Nc2ccccc2)cc1OC [GSK0660] (first compound 0.4 µM, partner dose 1 µM): the cell count in the test with WM115 stood at 87.1%; in the test on WM1716, 116%; in the test on WM1745, 84.6%; in the test with WM3526, 98.3%; in the test with WM3619, 120%; with WM451Lu, 99.8%.
Turning to `Cc1nc(Nc2ncc(C(=O)Nc3c(C)cccc3Cl)s2)cc(N2CCN(CCO)CC2)n1` [dasatanib] + COc1cc2ncnc(Nc3ccc(Oc4ccccc4)cc3)c2cc1OC [SrcI1] (first compound 0.004 µM, partner dose 2 µM), the cell count in the test with WM115 came to 74.9%; in the test on WM1716 it was 57.9%; in the test with WM1745, 69%; with WM3526 it was 106%; in the test on WM3619 it was 94.7%; in the test on WM451Lu, 85.4%.
Turning to `NCC(=O)Nc1ccc(-n2nc(C(F)(F)F)cc2-c2ccc3c(ccc4ccccc43)c2)cc1` + O=S(=O)(c1ccccc1)N(CC(F)(F)F)c1ccc(C(O)(C(F)(F)F)C(F)(F)F)cc1 [T0901317] (first compound 1 µM, partner dose 1.4 µM), the cell count in the test with WM115 worked out at 88.4%; in the test with WM1716 it was 89.2%; in the test on WM1745, 84.6%; in the test with WM3526, 49.7%; in the test on WM3619 it was 82.1%; in the test with WM451Lu, 61.2%.
In the case of `NC(=O)Nc1cc(-c2cccc(F)c2)sc1C(=O)N[C@H]1CCCNC1` + CC(C)CCN1c2nc(Nc3cc(F)c(O)c(F)c3)ncc2N(C)C(=O)C1C [BID1870] (first compound 0.02 µM, partner dose 0.2 µM), the cell count with WM115 turned out to be 96.8%; with WM1716, 82.2%; in the test on WM1745 it was 94%; with WM3526, 74.5%; in the test with WM3619, 47.4%; with WM451Lu it was 68.1%.
As to `Cc1nc(Nc2ncc(C(=O)Nc3c(C)cccc3Cl)s2)cc(N2CCN(CCO)CC2)n1` [dasatanib] + Oc1cc(-c2nc(-c3ccccc3)[nH]c2-c2ccncc2)ccc1Cl [L779450] (first compound 0.004 µM, partner dose 0.2 µM), the cell count in the test with WM115 was determined as 57.3%; in the test on WM1716, 78.2%; with WM1745 it was 67.4%; in the test with WM3526, 74.1%; with WM3619 it was 106%; in the test with WM451Lu, 71.6%.

The values above are taken from the supplement of paper PMC4604168 (melanoma cell lines).
